Test results published in article PMC9911399, “Two distinct binding modes provide the RNA-binding protein RbFox with extraordinary sequence specificity”.
Where a chain is given by its changes, count along the chain named. The list shows a part of the results.

T1: RBFOX1 RRM (Homo sapiens, UniProt Q9NWB1 109-208)
T1 sequence: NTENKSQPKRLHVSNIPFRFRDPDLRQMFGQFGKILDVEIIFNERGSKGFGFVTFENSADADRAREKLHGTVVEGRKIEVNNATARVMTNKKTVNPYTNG

B1: CGAGCUC (DNA:RNA)
RNA: GGGAGACCGGAAUUCAGAUUGUCCCGAGCUCUUAAAUCCCGUCGUAGCCACCA
DNA 1: CAATCTGAATTCCGGTCTCCC
DNA 2: TGGTGGCTACGACGGGATT
B2: CUGGCUU (DNA:RNA)
RNA: B1 RNA with G26U, A27G, C31U
DNA 1: CAATCTGAATTCCGGTCTCCC
DNA 2: TGGTGGCTACGACGGGATT
B3: UGCCUUU (DNA:RNA)
RNA: B1 RNA with C25U, A27C, G28C, C29U, C31U
DNA 1: CAATCTGAATTCCGGTCTCCC
DNA 2: TGGTGGCTACGACGGGATT
B4: AAAUAAA (DNA:RNA)
RNA: B1 RNA with C25A, G26A, G28U, C29A, U30A, C31A
DNA 1: CAATCTGAATTCCGGTCTCCC
DNA 2: TGGTGGCTACGACGGGATT
B5: GCCAGCC (DNA:RNA)
RNA: B1 RNA with C25G, G26C, A27C, G28A, C29G, U30C
DNA 1: CAATCTGAATTCCGGTCTCCC
DNA 2: TGGTGGCTACGACGGGATT
B6: CACGCCA (DNA:RNA)
RNA: B1 RNA with G26A, A27C, U30C, C31A
DNA 1: CAATCTGAATTCCGGTCTCCC
DNA 2: TGGTGGCTACGACGGGATT
B7: UAGGGAC (DNA:RNA)
RNA: B1 RNA with C25U, G26A, A27G, C29G, U30A
DNA 1: CAATCTGAATTCCGGTCTCCC
DNA 2: TGGTGGCTACGACGGGATT
B8: UACAUGU (ssRNA)
RNA: UACAUGU
B9: AGACCCU (DNA:RNA)
RNA: B1 RNA with C25A, G28C, U30C, C31U
DNA 1: CAATCTGAATTCCGGTCTCCC
DNA 2: TGGTGGCTACGACGGGATT
B10: CAAGACC (DNA:RNA)
RNA: B1 RNA with G26A, C29A, U30C
DNA 1: CAATCTGAATTCCGGTCTCCC
DNA 2: TGGTGGCTACGACGGGATT
B11: CACUCCA (DNA:RNA)
RNA: B1 RNA with G26A, A27C, G28U, U30C, C31A
DNA 1: CAATCTGAATTCCGGTCTCCC
DNA 2: TGGTGGCTACGACGGGATT
B12: UCCACUU (DNA:RNA)
RNA: B1 RNA with C25U, G26C, A27C, G28A, C31U
DNA 1: CAATCTGAATTCCGGTCTCCC
DNA 2: TGGTGGCTACGACGGGATT
B13: UGUGUUG (DNA:RNA)
RNA: B1 RNA with C25U, A27U, C29U, C31G
DNA 1: CAATCTGAATTCCGGTCTCCC
DNA 2: TGGTGGCTACGACGGGATT
B14: GGGCGGU (DNA:RNA)
RNA: B1 RNA with C25G, A27G, G28C, C29G, U30G, C31U
DNA 1: CAATCTGAATTCCGGTCTCCC
DNA 2: TGGTGGCTACGACGGGATT
B15: ACCCAAA (DNA:RNA)
RNA: GGGAGACCGGAAUUCAGAUUGUCCACCCAAAUUAAAUCCCGUCGUAGCCACCA
DNA 1: CAATCTGAATTCCGGTCTCCC
DNA 2: TGGTGGCTACGACGGGATT
B16: CGCUUUC (DNA:RNA)
RNA: B1 RNA with A27C, G28U, C29U
DNA 1: CAATCTGAATTCCGGTCTCCC
DNA 2: TGGTGGCTACGACGGGATT
B17: GCCGGUC (DNA:RNA)
RNA: B1 RNA with C25G, G26C, A27C, C29G
DNA 1: CAATCTGAATTCCGGTCTCCC
DNA 2: TGGTGGCTACGACGGGATT
B18: CAGUAGA (DNA:RNA)
RNA: B15 RNA with A25C, C26A, C27G, C28U, A30G
DNA 1: CAATCTGAATTCCGGTCTCCC
DNA 2: TGGTGGCTACGACGGGATT
B19: AAGCAGC (DNA:RNA)
RNA: B15 RNA with C26A, C27G, A30G, A31C
DNA 1: CAATCTGAATTCCGGTCTCCC
DNA 2: TGGTGGCTACGACGGGATT
B20: ACCGAGC (DNA:RNA)
RNA: B15 RNA with C28G, A30G, A31C
DNA 1: CAATCTGAATTCCGGTCTCCC
DNA 2: TGGTGGCTACGACGGGATT
B21: CAACAGG (DNA:RNA)
RNA: B15 RNA with A25C, C26A, C27A, A30G, A31G
DNA 1: CAATCTGAATTCCGGTCTCCC
DNA 2: TGGTGGCTACGACGGGATT
B22: AUGUAUC (DNA:RNA)
RNA: B15 RNA with C26U, C27G, C28U, A30U, A31C
DNA 1: CAATCTGAATTCCGGTCTCCC
DNA 2: TGGTGGCTACGACGGGATT
B23: AUAGAGU (DNA:RNA)
RNA: B15 RNA with C26U, C27A, C28G, A30G, A31U
DNA 1: CAATCTGAATTCCGGTCTCCC
DNA 2: TGGTGGCTACGACGGGATT
B24: AAAUCCG (DNA:RNA)
RNA: B1 RNA with C25A, G26A, G28U, U30C, C31G
DNA 1: CAATCTGAATTCCGGTCTCCC
DNA 2: TGGTGGCTACGACGGGATT
B25: UAAUUUC (DNA:RNA)
RNA: B1 RNA with C25U, G26A, G28U, C29U
DNA 1: CAATCTGAATTCCGGTCTCCC
DNA 2: TGGTGGCTACGACGGGATT
B26: UCCUGCA (DNA:RNA)
RNA: B15 RNA with A25U, C28U, A29G, A30C
DNA 1: CAATCTGAATTCCGGTCTCCC
DNA 2: TGGTGGCTACGACGGGATT
B27: CAAGGUC (DNA:RNA)
RNA: B1 RNA with G26A, C29G
DNA 1: CAATCTGAATTCCGGTCTCCC
DNA 2: TGGTGGCTACGACGGGATT
B28: UAAGGCG (DNA:RNA)
RNA: B1 RNA with C25U, G26A, C29G, U30C, C31G
DNA 1: CAATCTGAATTCCGGTCTCCC
DNA 2: TGGTGGCTACGACGGGATT
B29: CUAGCUU (DNA:RNA)
RNA: B1 RNA with G26U, C31U
DNA 1: CAATCTGAATTCCGGTCTCCC
DNA 2: TGGTGGCTACGACGGGATT
B30: CCACCUU (DNA:RNA)
RNA: B1 RNA with G26C, G28C, C31U
DNA 1: CAATCTGAATTCCGGTCTCCC
DNA 2: TGGTGGCTACGACGGGATT
B31: CAAUGGC (DNA:RNA)
RNA: B1 RNA with G26A, G28U, C29G, U30G
DNA 1: CAATCTGAATTCCGGTCTCCC
DNA 2: TGGTGGCTACGACGGGATT

How the values were obtained:
[1] = target: T1, RBFOX1 RRM; experiment: EMSA; HiTS-Eq, 1 nM pool, 10 min; buffer printed only for the single-RNA assays: 10 mM Tris pH 7.5, 150 mM NaCl, 3.4 mM EDTA, 0.001% NP-40, 30 C; conditions: tags: His6 N-terminal (pET28a); label: 5' 32P
Method in brief: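 Purified RbFox RRM, wild type or mutant, was incubated for 10 min in 50 µL with 1 nM of a 5′-radiolabelled RNA pool carrying 7 randomized nucleotides, whose flanks were annealed to DNA oligonucleotides, over a series of increasing protein concentrations. Unbound RNA was resolved on 8% native PAGE, cut out, reverse-transcribed, barcoded by PCR and sequenced on an Illumina HiSeq 2500. Relative association constants were derived from changes in read counts for each RNA species versus the control reaction and normalised to the cognate motif.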

[2] = target: T1, RBFOX1 RRM; experiment: competition; 10 mM Tris pH 7.5, 150 mM NaCl, 3.4 mM EDTA, 0.001% NP-40, 30 C; conditions: tags: His6 N-terminal (pET28a)

Binder	binding signal [1]	binding signal [2] [nM]
B1	0.0118 KA relative to UGCAUGU	–
B2	0.0169 KA relative to UGCAUGU	–
B3	0.0166 KA relative to UGCAUGU	–
B4	0.000652 KA relative to UGCAUGU	–
B5	0.0113 KA relative to UGCAUGU	–
B6	0.00204 KA relative to UGCAUGU	–
B7	0.00353 KA relative to UGCAUGU	–
B8	–	341
B9	0.00196 KA relative to UGCAUGU	–
B10	0.00212 KA relative to UGCAUGU	–
B11	0.0014 KA relative to UGCAUGU	–
B12	0.00587 KA relative to UGCAUGU	–
B13	0.0299 KA relative to UGCAUGU	–
B14	0.0224 KA relative to UGCAUGU	–
B15	0.000532 KA relative to UGCAUGU	–
B16	0.0149 KA relative to UGCAUGU	–

Binder	binding signal [1]	binding signal [2] [nM]
B17	0.0157 KA relative to UGCAUGU	–
B18	0.0116 KA relative to UGCAUGU	–
B19	0.00626 KA relative to UGCAUGU	–
B20	0.0103 KA relative to UGCAUGU	–
B21	0.00656 KA relative to UGCAUGU	–
B22	0.00724 KA relative to UGCAUGU	–
B23	0.00536 KA relative to UGCAUGU	–
B24	0.00203 KA relative to UGCAUGU	–
B25	0.00912 KA relative to UGCAUGU	–
B26	0.0135 KA relative to UGCAUGU	–
B27	0.00864 KA relative to UGCAUGU	–
B28	0.0143 KA relative to UGCAUGU	–
B29	0.00632 KA relative to UGCAUGU	–
B30	0.00116 KA relative to UGCAUGU	–
B31	0.00639 KA relative to UGCAUGU	–
